PubChem BioAssay AID1345082 (National Center for Advancing Translational Sciences (NCATS), 2018)
The campaign covered roughly 94,000 compounds. About 4,000 (4.3%) were called active. This list was built around the results that the source calls inconclusive (neither active nor inactive); the mix of calls is not that of the screen. Calls follow the shape of the dose curve; as a rule, active = well fitted inhibition curve with a large enough effect; inconclusive = small, poorly fitted or top-dose-only effect; inactive = no such curve, though single readings can be large or run the other way. Where the call is inconclusive, the potency comes from a doubtful curve fit.

Assay: Cytotoxic Profiling in NIH 3T3 Cell Line of Diverse Libraries Using Quantitative High-Throughput Screening; also: nearly all actives have a fitted effect of over 55% in size
Conditions: NIH 3T3 viability, CellTiter-Glo ATP luminescence, 48-72 h; activity change, negative = cytotoxicity: at 96.7 µM (top of the series) unless noted; series mostly up to 96.7 µM
Procedure, shortened: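 Cells were seeded at 400 per well, treated with pin-transferred compound, and kept 48 or 72 hr at 37 °C before CellTiter-Glo addition and luminescence imaging of cellular ATP.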
% is scaled to controls: 0 for no effect and ±100 for the full control effect; potency is read from the fitted curve at half-maximal effect; tags tell the direction and shape of the fitted curve.

SMILES	Potency	activity change, negative = cytotoxicity	outcome
COc1ccc(C(=O)N2CCc3nc(C(C)C)nc(-c4ccc(Cl)cc4)c3CC2)cc1	inconclusive: 50.1 µM [inhibitor, partial curve, poor fit]	–	–
CC(C)(C)c1cc(C[C@H]2CNCC[C@H]2CC(=O)N2CCC(Cc3ccccc3)CC2)no1	active: 28.2 µM	–	–
O=C(NCc1ccc(F)cc1)C1CCCCN1Cc1ccc(-c2cccs2)cc1 (centres undefined)	inconclusive: 39.8 µM [inhibitor, partial curve, poor fit]	–	–
O=C1CCC2(C(=O)NCc3cc(F)ccc3F)CCCC=C2N1Cc1ccccc1 (centres undefined)	–	inactive: -23.5%	–
Cc1ccc(OCc2nc(C3CN(C(=O)CCc4nc5ccccc5s4)C3)no2)cc1	inconclusive: 44.7 µM [inhibitor, partial curve, poor fit]	–	–
Cc1nnc(-c2cc(-c3cnn(C)c3)ccn2)n1Cc1ccccc1	active: 44.7 µM	–	–
CC1=NS(=O)(=O)N(Cc2ccccc2)C=C1C(=O)OCc1nc(-c2ccc(C)cc2)no1	inconclusive: 15.8 µM [inhibitor, full curve, poor fit]	–	–
COc1ccc(C(=O)N2CC[C@H](c3nnc(-c4ccccc4OC)o3)C2)cc1OC	inconclusive: 112 µM [inhibitor, partial curve, poor fit]	–	–
O=C(NCCNC(=O)c1cccnc1)c1ccc(-c2cccc(C(F)(F)F)c2)cc1	inconclusive: 50.1 µM [inhibitor, partial curve, poor fit]	–	–
CC1(COc2ccc3[nH]ccc3c2)COc2ccc(C(=O)N3CCOCC3)cc2N1 (centres undefined)	inconclusive: 89.1 µM [inhibitor, single point]	–	–
COCC(=O)N1CCC2(CC1)SCC(=O)N2c1ccc(OC)cc1	inconclusive: 50.1 µM [inhibitor, partial curve, poor fit]	–	–
CC(C)NC(=O)c1nc(-c2ccc([S+](C)(=O)[O-])cc2)c2ccccn12	inconclusive: 50.1 µM [inhibitor, partial curve, poor fit]	–	–
CC(C)Cc1cnc(-c2cccnc2)[nH]1	inconclusive: 112 µM [inhibitor, partial curve]	–	–
CC(C)NC(=O)N[C@H]1C[C@H]2C(=O)NC[C@@H](CCC(=O)NC3CC3)N2C1	–	inactive: -14.7% [at 138 µM]	–
O=C(Nc1ccc(-c2cccc(F)c2)cc1)C1CCCN(C(=O)c2ccncc2)C1 (centres undefined)	inconclusive: 44.7 µM [inhibitor, partial curve, poor fit]	–	–
c1cc(-c2ccnc3nc(CCC4CCCC4)nn23)ccn1	active: 35.5 µM	–	–
CN(C)CCNC(=O)c1nc2nc(-c3ccccc3)c(-c3ccccc3O)cc2n1C	active: 79.4 µM	–	–
COCCNC(=O)C[C@@H]1C[C@H]2O[C@H](CNCc3ccccc3Cl)[C@@H](O)[C@H]2O1	–	–	inactive [at 174 µM]
Clc1cccc(N2CCN(C3CCCN(CCCc4ccccc4)C3)CC2)c1 (centres undefined)	inconclusive: 35.5 µM [inhibitor, partial curve, poor fit]	–	–
CC(C)CCNC(=O)c1ccc2c(c1)CC(=O)N2Cc1ccc(F)cc1	inconclusive: 50.1 µM [inhibitor, single point]	–	–
CNC(=O)c1cc(C2CC2)nc2c1c(C1CCN(C(=O)Cc3ccccn3)CC1)nn2C	–	–	inactive
CN(CC1CCCO1)C(=O)c1coc(COc2cccc(C(F)(F)F)c2)n1 (centres undefined)	inconclusive: 39.8 µM [inhibitor, full curve]	–	–

SMILES	Potency	activity change, negative = cytotoxicity	outcome
COc1ccc(-c2ccc3c(c2)C(=O)N2CC[C@H](NC(=O)c4cccc(F)c4)[C@H]2C(=O)N3)cc1	inconclusive: 89.1 µM [inhibitor, single point]	–	–
O=C(c1ccccc1)N1CCc2sc(C(=O)N3CCN(c4ccc(F)cc4)CC3)cc2C1	inconclusive: 11.2 µM [inhibitor, full curve, poor fit]	–	–
CC(C)(N)C(=O)N1CCCC(N2CCN(Cc3ccc4c(c3)OCO4)CC2)C1 (centres undefined)	–	inactive: -24.9%	–
CN(C)[S+](=O)([O-])c1ccc2c(c1)OCCN(Cc1cccc(Cl)c1)C2	inconclusive: 56.2 µM [inhibitor, partial curve, poor fit]	–	–
CC1CCN(C(=O)c2ccccc2OCC2CCCN(C(=O)c3ccncc3)C2)CC1 (centres undefined)	inconclusive: 70.8 µM [inhibitor, single point]	–	–
COc1ccc(C(=O)Nc2ccc3c(c2)CN(Cc2ccc(OC)cc2OC)C(=O)CO3)cc1	inconclusive: 50.1 µM [inhibitor, partial curve, poor fit]	–	–
COc1cccc([S+](=O)([O-])N2CCC3(CC2)COc2ccccc2NC3=O)c1	–	inactive: -16.5%	–
Cc1nnc2ccc(N3CCC(NC(=O)c4cccc(Cl)c4)CC3)nn12	–	inactive: -23.8%	–
O=C(NCCN1CCOCC1)c1nc2sccn2c1-c1ccc(C(F)(F)F)cc1	–	inactive: -28.9%	–
O=C(NCc1ccccc1)C1CCCN1Cc1ccc(-c2cncnc2)cc1 (centres undefined)	–	inactive: -20.6%	–
CC1(c2ccccc2)N(Cc2ccccc2C#N)C(=O)OC12CCN(C(=O)Cc1ccc(O)cc1)CC2 (centres undefined)	active: 11.2 µM	–	–
COc1cc(CNC(=O)c2c(C)noc2-c2cc(OC)c(OC)c(OC)c2)cc(OC)c1	inconclusive: 50.1 µM [inhibitor, partial curve, poor fit]	–	–
CCc1cccc(-n2nnnc2N2CCN(C(=O)Nc3ccc(C)c(Cl)c3)CC2)c1	inconclusive: 50.1 µM [inhibitor, single point]	–	–
CCOCC(=O)N1CC(c2nc(CCOc3cccc(C)c3)no2)C1	inconclusive: 50.1 µM [inhibitor, partial curve, poor fit]	–	–
Cc1cccc(-c2cn[nH]c2C2CCN(C(=O)c3ccccc3OC(F)F)CC2)c1	inconclusive: 56.2 µM [inhibitor, partial curve, poor fit]	–	–
Cc1ccsc1C(=O)N1CCC2(CC1)NC(=O)N(c1cccc(Cl)c1)N2	inconclusive: 39.8 µM [inhibitor, partial curve]	–	–
CC(C)n1nc(OC(C)(C)C(=O)Nc2cccnc2)c2cc(CN3CCOCC3)ccc21	active: 28.2 µM	–	–
Cc1cccc(NC(=O)NCC2Cn3cccc3C(=O)N2C)c1 (centres undefined)	–	inactive: 3.59%	–
CC(C)CCN1CCOc2cc(C(=O)Nc3ccc(F)cc3)ccc2C1	inconclusive: 8.91 µM [inhibitor, full curve, poor fit]	–	–
CN(C(=O)[C@@H]1C[C@@H](c2cccc(C(F)(F)F)c2)N(Cc2cnn(C)c2)C1)c1ccccc1	inconclusive: 39.8 µM [inhibitor, partial curve, poor fit]	–	–
Cc1noc(C)c1[S+](=O)([O-])N1CCCC(C(=O)N2CCC(c3nc4ncccc4[nH]3)CC2)C1 (centres undefined)	–	inactive: -17.2%	–
Cc1cccc(C(=O)N2CCOc3ccc(CCC(N)=O)cc3C2)c1	–	inactive: -15.1%	–

SMILES	Potency	activity change, negative = cytotoxicity	outcome
Cc1noc(C)c1[S+](=O)([O-])N1CCC2(CC1)C(=O)NN=C2c1cccnc1	–	inactive: -26.3%	–
CC(C)c1ccc(CC(=O)N2CCCc3ncc(C(=O)Nc4cccc(C(F)(F)F)c4)cc32)cc1	inconclusive: 28.2 µM [inhibitor, full curve]	–	–
COc1ccc(C(=O)N2CCC3(CC2)NC(=O)N(c2ccc(F)cc2)N3)cc1OC	inconclusive: 44.7 µM [inhibitor, partial curve]	–	–
CN(CC(O)COc1cccc(CNCCOc2ccccc2)c1)C1CCCCC1 (centres undefined)	inconclusive: 50.1 µM [inhibitor, partial curve, poor fit]	–	–
COc1cccc(CN2Cc3nc(Oc4ccccc4)ccc3OCC2=O)c1	inconclusive: 79.4 µM [inhibitor, partial curve, poor fit]	–	–
COc1ccc(C(=O)N2CCC(Oc3ccc(-c4noc(C5CC5)n4)cc3)C2)cn1 (centres undefined)	inconclusive: 39.8 µM [inhibitor, partial curve]	–	–
COc1ccccc1-c1cccc(CN2CCCC(C(=O)Nc3ccc(F)cc3)C2)c1 (centres undefined)	inconclusive: 56.2 µM [inhibitor, partial curve, poor fit]	–	–
CCNC(=O)OC1CCN(C(=O)c2ccc3c(c2)OCCCO3)CC(=O)N(C)c2ccccc21 (centres undefined)	inconclusive: 50.1 µM [inhibitor, partial curve, poor fit]	–	–
COc1ccc(C(=O)N2CCOCC3(CN(Cc4cccc(Cl)c4)C3)C2)cc1OC	inconclusive: 31.6 µM [inhibitor, full curve, poor fit]	–	–
O=C(Nc1ccccc1)N1CCCC(c2nc(CCOCC3CCCC3)no2)C1 (centres undefined)	inconclusive: 44.7 µM [inhibitor, partial curve, poor fit]	–	–
CC(C)CN1C(=O)c2ccccc2C(C(=O)Nc2ccncc2)C12CCCC2 (centres undefined)	–	inactive: -11.4%	–
O=C1Nc2ccccc2CNC12CCN(CC1CCOCC1)CC2	–	–	inactive
Cc1ccc(CN2CCn3c(nn(-c4ccncc4)c3=O)C2)cc1	inconclusive: 50.1 µM [inhibitor, partial curve, poor fit]	–	–
COC(=O)C1=C(C)N=C2SC=C(CC(=O)NCC3CCCO3)N2C1c1ccccc1F (centres undefined)	–	inactive: -21.3%	–
Cc1cc(COc2ccccc2)oc1C(=O)N1C[C@@H]2CCN(C)[C@@H]2C1	–	inactive: -9.26%	–
O=C(Nc1ccccc1)N1CCC(N2CCCNC2=O)CC1	inconclusive: 100 µM [inhibitor, partial curve, poor fit]	–	–
Cc1nc(-c2ccc(F)cc2)n(Cc2nc(-c3ccccc3)oc2C)c(=O)c1CCO	–	inactive: -17.2%	–
COc1ccc(-c2cc(N3CCC(NC(=O)c4cc(C)ccc4C)CC3)n[nH]2)cc1	inconclusive: 50.1 µM [inhibitor, partial curve, poor fit]	–	–
COc1ccc(Nc2ccnc(N3CCCC(C(=O)NC4CCCC4)C3)n2)cc1 (centres undefined)	active: 39.8 µM	–	–
Cc1ccc(Nc2ccnc(N3CCC(C(=O)NCC(F)F)CC3)n2)cc1	inconclusive: 39.8 µM [inhibitor, partial curve]	–	–
